From ChEMBL document CHEMBL5308541, “MAIP: An Open-Source Tool to Enrich High-Throughput Screening Output and Identify Novel, Druglike Molecules with Antimalarial Activity” (ACS Med Chem Lett, 2023)
The whole screen tested about 150,000 compounds, of which about 540 (0.36%) showed an effect of 50% or more. Some of the results follow.

What follows are molecules tested on Plasmodium falciparum (assay: Primary screen in NF54 nanoGlo assay, in single point, at 2uM, 72h; a lower Z score goes with more inhibition). Details: timepoint 72 hour.
Format: functional, Erythrocyte

Structure (SMILES)	% Inhibition [%]	Z score
O=C(CN1CCN(C2CCNCC2)C[C@@H](O)C1)NCc1ccccc1	-4	0.74
FC(F)(F)c1cccnc1N1CCN(C2CCN(CCOc3ccccc3)CC2)CC1	-2	0.29
CCCc1noc(CN(C)Cc2[nH]cc(C)c(=O)c2C)n1	-4	0.78
CCCc1nc(NCC2CCN(Cc3ccc(C)o3)CC2)c2cnn(C)c2n1	4	-0.68
CC(C)[C@@H]1N(C(=O)C2CCN(c3ncccn3)CC2)CC12CCC2	-13	1.95
Cc1cccc2nc(NCc3ccncc3O[C@H]3CCNC3)oc12	5	-0.92
N#Cc1cccc(Nc2nc(N3CCN(c4ccccc4)CC3)nc3[nH]cnc23)c1	4	-0.69
CC(NC(=O)NC1CCCCNC1=O)c1cc2ccccc2o1 (stereo unspecified)	0	-0.03
NC1CC(c2cc(NC3CCN(Cc4ccncc4)CC3)ncn2)C1 (stereo unspecified)	-10	1.76
Cc1nc2ccc(C(=O)N[C@@H](C)c3nncn3C(C)C)cc2o1	-7	1.36
OCC[C@H]1CN(c2ncc(F)c(N3CCOCC3)n2)CCN1C1CCCC1	-3	0.58
CC[C@H](NC(=O)c1ccc2nc(C)sc2c1)c1nc(C)c[nH]1	-13	2.18
FC(F)CN(Cc1ccc(CN2CCOCC2)cc1)C1CC1	-5	1.18
Cc1ccc2[nH]nc(C(=O)N(CC3CCN(C4CCCC4)CC3)C[C@H]3CCCO3)c2c1	6	-1.1
CNC(=O)c1cc(Oc2cccc(NC3CCN([C@H]4CCOC4)CC3)c2)ccn1	2	-0.23
COc1ccc(-n2nc(C)c3c(O)cc(-c4ccccc4OC)nc32)cc1	-3	0.52
COc1ccc(Nc2cc(N3CCC4OCC(=O)NC4C3)ncn2)c(OC)c1 (stereo unspecified)	-1	0.16
CC(=O)N1CCN(c2ccc(CNc3cnc4cc(Cl)c(Cl)cc4n3)cc2)CC1	2	-0.34
CN(C[C@H](O)COc1ccccc1CN1CCC(c2ccncc2)CC1)C1CCCCC1	41	-8.15
O=C(NC1CCCCNC1)N1CCC2(CCCNC2)C1 (stereo unspecified)	0	-0.01
O=S1(=O)CCC(CN2CCC[C@H](c3c[nH]c4ncccc34)C2)CC1	-11	1.6
C[C@@H](c1ccc(-c2nccc(N3CCC(O)CC3)n2)cc1)N1CCCCC1	5	-1.12
CC(C)[C@H]1C=CCN1C(=O)c1cccc(-c2ccc(NC3CCCC3)nn2)c1	-9	1.97
COc1ccc(OC)c2nc(N3CCOCC3)c(CN(C[C@H]3COc4ccccc4O3)C(C)=O)cc12	5	-0.87
CCCn1ncc(C(=O)NCCc2c(C)[nH]c3ccc(C#N)cc23)c1C	-6	1.15
C[C@@H](c1cccc(-c2cc(N3CCOCC3)nc(N)n2)c1)N1CCCC1	-1	0.25
Cn1nccc1NC(=O)Cn1cc(-c2csc(CN3CCNCC3)c2)cn1	-8	1.37

Structure (SMILES)	% Inhibition [%]	Z score
Fc1ccc(Cn2c3ccccc3c3nnc(NCCc4c[nH]c5ccccc45)nc32)cc1	-12	2.07
Cc1n[nH]c(C)c1CNC(=O)Nc1ccc2c(c1)OCC(=O)N2C	3	-0.56
CC(=O)c1cnc(NC2CC(C)(C)NC(C)(C)C2)nc1C	18	-3.18
Oc1ccc(-c2ccccc2OC[C@@H](O)CN2CCCCC2)cc1OC(F)(F)F	14	-2.41
Cc1nc(Nc2cnn(CC(F)(F)F)c2)cc(-c2cccnc2)n1	2	-0.38
O[C@H](CN1CCOCC1)CN1CCC(Nc2ccccc2F)CC1	-1	0.2
C1CC2(CCN1)COC(CN1CC3CCNCC3C1)C2 (stereo unspecified)	-1	0.08
O=C([C@H]1CCCN(Cc2coc3ccccc23)C1)N1CCOCC1	-2	0.47
CC(C)N1CCN(CCCN2CC3(CCN(C(=O)[C@@H]4CCCN4)CC3)OC2=O)CC1	-11	2
COc1ccccc1-c1ncc(CN(C)C2CCOCC2)cn1	-9	1.84
c1nc(N2CCCC2)cc(N2CCC(Nc3nccs3)CC2)n1	-12	2.1
O=C(c1cn(CCN2CCNCC2)nn1)N1CCC(c2ccncc2)CC1	1	-0.21
COc1ccc(Nc2nc(N(C)CCC(C)O)cc(N(C)CCC(C)O)n2)cc1 (stereo unspecified)	10	-1.76
O=C(c1nc(=O)[nH]c2ccccc12)N1CCc2c([nH]c3ccccc23)[C@@H]1C1CCCCC1	-7	1.13
Brc1cncc([C@@H](Nc2ncnc3[nH]ccc23)C2CC2)c1	3	-0.58
Cc1cccc(C)c1OCCCn1nnnc1C1(O)CCOCC1	-7	1.58
O=C(NC1CCN(Cc2ccncc2)CC1)c1ccc(-c2ccccc2)[nH]1	-7	1.46
CN(C)c1nc(NC2CCN(Cc3ccccc3Cl)CC2)ncc1F	-1	0.23
OC[C@H]1CCCCN1CCNc1cnc2ccccc2n1	8	-1.44
c1ccc(Oc2ccccc2-c2cnc3nn[nH]c3c2)cc1	-3	0.51
Nc1cccc(OCC2CCOCC2)c1	3	-0.69
c1cc(CO[C@H]2CCOC2)cc(-c2ccc3nccn3c2)c1	-1	0.13
CCn1cc(-c2cccc(C(=O)N3CCN(C4CCCCC4)CC3)c2)cn1	-10	1.9
Cc1nc(C#N)c(N2CCC(C(=O)Nc3nc4ccccc4[nH]3)CC2)o1	-14	2.38
CC(C)c1ccc([C@@H]2CCCCN2c2cc(-n3ccnc3)ncn2)cc1	-5	0.95
CCCN1C(=O)C2CCC1CN(Cc1cnn(-c3ccccc3)c1)C2 (stereo unspecified)	-2	0.32
